Test results: the supplement of paper PMC3334620
In all, about 33,000 sequences were measured (“E-score (-0.5 to 0.5)”: median about -0.012, highest 2% from about 0.27 on). The list shows a part of the results.

Molecular target: T1, Vhr1 (UniProt P40522)
T1 sequence: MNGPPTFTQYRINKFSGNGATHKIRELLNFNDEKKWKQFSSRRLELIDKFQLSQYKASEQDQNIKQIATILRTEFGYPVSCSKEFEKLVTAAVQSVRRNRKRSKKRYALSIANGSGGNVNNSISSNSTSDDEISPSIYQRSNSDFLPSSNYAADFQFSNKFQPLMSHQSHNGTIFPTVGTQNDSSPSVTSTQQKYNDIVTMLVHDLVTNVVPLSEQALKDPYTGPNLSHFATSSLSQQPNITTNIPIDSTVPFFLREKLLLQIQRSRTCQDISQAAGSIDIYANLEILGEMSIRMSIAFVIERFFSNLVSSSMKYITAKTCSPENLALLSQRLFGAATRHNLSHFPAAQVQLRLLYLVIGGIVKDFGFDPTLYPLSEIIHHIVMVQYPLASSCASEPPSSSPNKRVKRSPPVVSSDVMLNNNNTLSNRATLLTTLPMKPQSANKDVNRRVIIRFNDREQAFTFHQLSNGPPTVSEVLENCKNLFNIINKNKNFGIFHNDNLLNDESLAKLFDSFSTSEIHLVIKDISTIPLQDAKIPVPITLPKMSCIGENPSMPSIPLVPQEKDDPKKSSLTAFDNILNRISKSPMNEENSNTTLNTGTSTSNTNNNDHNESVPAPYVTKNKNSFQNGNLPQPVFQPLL
Assay: PBM E-score (8-mer binding enrichment) (E-score (-0.5 to 0.5)); higher = stronger / more preferred TF binding; most listed sequences are background and not binding sites
Conditions: protein concentration: 200 nM; construct: GST-full length
Method in brief: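 Yeast transcription factors, full-length or as DNA-binding domains, were expressed with a GST tag using PURExpress in vitro transcription/translation. At about 100-200 nM they were applied to universal all-10-mer Agilent arrays, double-stranded by primer extension on fresh or once-stripped slides. Fluorescent anti-GST detected bound protein, and masliner normalised the scans. E-scores for ungapped eight-base words, pooled with reverse complements, came from the Universal PBM Analysis Suite.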

AATACTCT was tested. Which “PBM E-score” value did it give?
The value was 0.0104.

How did the “PBM E-score” value turn out when ATCCCTCA was run?
The value was -0.16.

Which “PBM E-score” value does the source give for GATTGCTA here?
The value was -0.0805.

AGCCCTTG was tested. Which “PBM E-score” value did it give?
The value was -0.088.

With TAGATCGA as the sequence, how does the “PBM E-score” value read?
Its value is -0.048.

For GGGAGAAC, which “PBM E-score” value is on record?
The value was -0.189.

Which “PBM E-score” value does the source give for ATTGTTTG here?
Its value is -0.0624.

With TCAGTTCA as the sequence, how does the “PBM E-score” value read?
The value was -0.0239.

GTGTGAAC was tested. Which “PBM E-score” value did it give?
Its value is 0.18.

Which “PBM E-score” value does the source give for AACCCTGT here?
The value was -0.0657.

Which “PBM E-score” value does the source give for ACTTGCAA here?
Its value is 0.00414.

With AAGGTAAC as the sequence, how does the “PBM E-score” value read?
The value was 0.0225.

Which “PBM E-score” value does the source give for TGGGCACA here?
The value was 0.0493.

ATGGGCAA was tested. Which “PBM E-score” value did it give?
Its value is 0.129.

TCGACAGA was tested. Which “PBM E-score” value did it give?
The value was -0.0968.

How did the “PBM E-score” value turn out when CGCGACCC was run?
The value was 0.153.

For TGCTAAAA, which “PBM E-score” value is on record?
The value was -0.255.

For CAATTCTG, which “PBM E-score” value is on record?
Its value is -0.077.

GCTGAATA was tested. Which “PBM E-score” value did it give?
The value was 0.00091.

With AATGGTCA as the sequence, how does the “PBM E-score” value read?
Its value is 0.0534.

Which “PBM E-score” value does the source give for AAAAAAGC here?
The value was -0.19.

How did the “PBM E-score” value turn out when CACTATCC was run?
Its value is -0.0168.

CCGATGGC was tested. Which “PBM E-score” value did it give?
The value was -0.0471.

Which “PBM E-score” value does the source give for GATCGGCA here?
The value was -0.059.

How did the “PBM E-score” value turn out when CCGTCACC was run?
The value was -0.114.

With ACATCAGG as the sequence, how does the “PBM E-score” value read?
Its value is 0.0879.

For AGAGGGCT, which “PBM E-score” value is on record?
Its value is -0.249.

AACGTTCT was tested. Which “PBM E-score” value did it give?
The value was -0.0871.

For ATGCCATA, which “PBM E-score” value is on record?
Its value is -0.0959.

How did the “PBM E-score” value turn out when ACGGAAGT was run?
Its value is -0.0793.

For CGGATGTC, which “PBM E-score” value is on record?
The value was -0.00234.

With AGGATACT as the sequence, how does the “PBM E-score” value read?
Its value is -0.156.

ACGCATTA was tested. Which “PBM E-score” value did it give?
The value was -0.0807.

How did the “PBM E-score” value turn out when AGAATAGA was run?
Its value is -0.151.

How did the “PBM E-score” value turn out when ACCAGCAT was run?
Its value is 0.0788.

With ATTTAGGG as the sequence, how does the “PBM E-score” value read?
Its value is -0.202.

How did the “PBM E-score” value turn out when AGCAGTTA was run?
Its value is -0.103.

Which “PBM E-score” value does the source give for AATACCTC here?
Its value is 0.0406.

CTTCTCTA was tested. Which “PBM E-score” value did it give?
The value was -0.263.

AAGCCGCC was tested. Which “PBM E-score” value did it give?
The value was -0.0537.

ACTAAGGG was tested. Which “PBM E-score” value did it give?
The value was 0.173.

For AGAGTACC, which “PBM E-score” value is on record?
Its value is 0.00489.

With ATGATCAC as the sequence, how does the “PBM E-score” value read?
The value was 0.265.

Which “PBM E-score” value does the source give for AACATATT here?
Its value is 0.0536.

With GGTCATTA as the sequence, how does the “PBM E-score” value read?
The value was -0.0362.

ACGCCGCT was tested. Which “PBM E-score” value did it give?
The value was 0.0465.

For CACCGTGA, which “PBM E-score” value is on record?
The value was 0.162.

With ACCCGCAG as the sequence, how does the “PBM E-score” value read?
The value was 0.0734.

With AAACCTAC as the sequence, how does the “PBM E-score” value read?
The value was -0.0161.

Which “PBM E-score” value does the source give for CATAGTCC here?
Its value is 0.115.

How did the “PBM E-score” value turn out when AGAACCAT was run?
Its value is 0.107.

How did the “PBM E-score” value turn out when GATCTGCA was run?
Its value is -0.142.

Which “PBM E-score” value does the source give for TAATTTAA here?
The value was -0.0298.

Which “PBM E-score” value does the source give for ACGCAAGC here?
Its value is 0.0516.

How did the “PBM E-score” value turn out when TCTTCTAA was run?
The value was -0.118.

For ATAACGCG, which “PBM E-score” value is on record?
The value was 0.0317.

How did the “PBM E-score” value turn out when AACGCAAA was run?
Its value is 0.0203.

GCATTAAA was tested. Which “PBM E-score” value did it give?
The value was -0.162.

For CGGCGTAC, which “PBM E-score” value is on record?
The value was 0.0172.

How did the “PBM E-score” value turn out when GATAGCGC was run?
Its value is 0.00074.

Which “PBM E-score” value does the source give for AGATGGCC here?
The value was -0.22.

ACTACTCG was tested. Which “PBM E-score” value did it give?
Its value is 0.24.

For CCGAAGGC, which “PBM E-score” value is on record?
Its value is -0.206.

How did the “PBM E-score” value turn out when ACAAAAAT was run?
The value was 0.0768.

With AACACCAT as the sequence, how does the “PBM E-score” value read?
Its value is 0.16.

How did the “PBM E-score” value turn out when AGAAGTGA was run?
The value was -0.0563.

ATCTTAGC was tested. Which “PBM E-score” value did it give?
Its value is -0.137.

How did the “PBM E-score” value turn out when CCACTGCC was run?
The value was 0.0242.

CTCAAGAA was tested. Which “PBM E-score” value did it give?
Its value is -0.175.

GGATGAAA was tested. Which “PBM E-score” value did it give?
Its value is 0.0509.

CATGGAAC was tested. Which “PBM E-score” value did it give?
The value was -0.056.

How did the “PBM E-score” value turn out when CTTCTAGC was run?
The value was -0.172.

Which “PBM E-score” value does the source give for ACGCTCAT here?
The value was 0.0513.

With CGCTACGC as the sequence, how does the “PBM E-score” value read?
Its value is -0.148.

AAAGGGAC was tested. Which “PBM E-score” value did it give?
Its value is -0.0521.

ATTTCGGG was tested. Which “PBM E-score” value did it give?
Its value is -0.27.

With GGTCTGCA as the sequence, how does the “PBM E-score” value read?
Its value is 0.066.

With ATTCAGAC as the sequence, how does the “PBM E-score” value read?
The value was 0.106.

CCTAGTGA was tested. Which “PBM E-score” value did it give?
The value was 0.0766.

Which “PBM E-score” value does the source give for CTAAAGGC here?
Its value is -0.308.

For CGTTTTTA, which “PBM E-score” value is on record?
Its value is -0.067.

For GGGCATAC, which “PBM E-score” value is on record?
The value was -0.267.

For CTCTGTCA, which “PBM E-score” value is on record?
The value was -0.17.

ACTCGACA was tested. Which “PBM E-score” value did it give?
Its value is 0.127.

How did the “PBM E-score” value turn out when CTTTATAA was run?
Its value is -0.307.

With ACTGGTAT as the sequence, how does the “PBM E-score” value read?
The value was 0.111.
